Where “and” joins values, the source holds several entries; their conditions need not be identical. Identical values can stand only once. Calls of active or inactive are those of the source. Unless noted, calls come from the whole dose curve; as a rule, active = well fitted curve in the direction sought with a large enough effect in the repeat runs; inconclusive = weak or mixed curves; inactive = no such curve, though single readings can be large; an effect the other way counts as inactive or inconclusive.
Key:
[1] = qHTS assay for small molecule agonists of the p53 signaling pathway (AID 651631; calls by dose curve; note: nearly all actives have a fitted effect of over 15% in size; for activation: % is set by controls: 0 for no effect and ±100 for the full control effect); conditions: HCT-116 p53RE-bla reporter, beta-lactamase FRET ratio, 16 h; activation: at 73.3 µM (top of the series) unless noted
How it was run: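 Quantitative high-throughput format: 4,000 p53RE-bla HCT-116 cells/well, 5 h pre-incubation, 16 h compound exposure at 37 °C, 2 h room-temperature substrate step, fluorescence intensity measured.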

[2] = qHTS assay for small molecule disruptors of the mitochondrial membrane potential (AID 720635); conditions: HepG2 mitochondrial membrane potential, Mito-MPS dye ratio; ratio activity, negative = MMP loss: at 83.2 µM (top of the series) unless noted
How it was run: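 HepG2 cells (2,000/well) attached overnight at 37C, then took compound for 1 hr at 37C, 5% CO2. Mito-MPS dye was added for 30 min; fluorescence was read at 490/535 nm (monomers) and 540/590 nm (aggregates).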

[3] = qHTS assay for identifying genotoxic compounds that show differential cytotoxicity against isogenic chicken DT40 cell lines with known DNA damage response pathways - wild type cell line (AID 743012); conditions: DT40 wild type chicken cells viability, CellTiter-Glo, 40 h; activity change, negative = cytotoxicity: at 68.4 µM (top of the series) unless noted; note: nearly all actives have a fitted effect of over 60% in size
How it was run: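 Cytotoxicity in repair-proficient parental chicken DT40 cells serves as the comparator for Rad54/Ku70- and Rev3-deficient lines. Cells were exposed to compounds for 40 h at 37 C/5% CO2, and ATP-based luminescence (CellTiter-Glo) measured viability.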

[4] = qHTS assay for identifying genotoxic compounds that show differential cytotoxicity against isogenic chicken DT40 cell lines with known DNA damage response pathways - Rev3 mutant cell line (AID 743014); conditions: chicken DT40 Rev3-/- viability, CellTiter-Glo, 40 h; activity, negative = cytotoxicity: at 68.4 µM (top of the series); note: nearly all actives have a fitted effect of over 55% in size
[5] = qHTS assay for small molecules that induce genotoxicity in human embryonic kidney cells expressing luciferase-tagged ATAD5 (AID 651632); note: nearly all actives have a fitted effect of over 15% in size
How it was run: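 Cells were seeded at 2,000 per well, dosed with compound, and incubated 16 hr at 37C in 5% CO2. Luciferase activity was then quantified after a 30 min room-temperature incubation with Amplite.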

[6] = qHTS assay for small molecules that induce genotoxicity in human embryonic kidney cells expressing luciferase-tagged ATAD5 - cell viability (AID 651634; calls by dose curve; note: nearly all actives have a fitted effect of over 25% in size)
How it was run: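 Cells (HEK293T, luciferase-tagged ATAD5) are seeded at 2,000 per well, dosed with compound or DMSO vehicle, and incubated 15.5 hr at 37C and 5% CO2. CellTiter-Fluor is added for 30 min before fluorescence is measured.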

[7] = qHTS assay for small molecule disruptors of the mitochondrial membrane potential - cell viability (AID 720634; calls by dose curve; note: nearly all actives have a fitted effect of over 20% in size)
How it was run: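 Cytotoxicity was measured by ATP quantitation in HepG2 wells that had first been treated with compound for 1 hr and stained with m-MPI dye; CellTiter-Glo incubation was 30 min at room temperature.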

[8] = biological target: Glucocorticoid receptor (Homo sapiens) (UniProt P04150); experiment: qHTS assay to identify small molecule agonists of the glucocorticoid receptor (GR) signaling pathway (AID 720691; active = well fitted activation curve with a large enough effect in the signal ratio in the repeat runs, not every such curve was filed as active; inconclusive = weak or mixed curves, or effect the other way; inactive = no such curve, though single readings can be large or run the other way; the % refers to the signal ratio; for activation: % is set by controls: 0 for no effect and ±100 for the full control effect); conditions: GR-bla HeLa, beta-lactamase reporter ratio, 18 h; activation: at 62.4 µM (top of the series) unless noted
How it was run: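 Steps: seed GR-bla HeLa cells, incubate 4 h at 37 C/5% CO2; pin-transfer DMSO-dissolved compounds; incubate 18 h at 37 C; add LiveBLAzer B/G FRET substrate; after 2 h at room temperature, measure fluorescence.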

[9] = biological target: Glucocorticoid receptor (Homo sapiens) (UniProt P04150); experiment: qHTS assay to identify small molecule antagonists of the glucocorticoid receptor (GR) signaling pathway (AID 720692; active = well fitted inhibition curve with a large enough effect in the signal ratio in the repeat runs, not every such curve was filed as active; inconclusive = weak or mixed curves, or effect the other way; inactive = no such curve, though single readings can be large or run the other way; the % refers to the signal ratio); conditions: GR-bla HeLa, beta-lactamase FRET ratio, dexamethasone-stimulated, 18 h; activity change, negative = inhibition: at 58.5 µM (top of the series) unless noted
How it was run: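 Antagonism was scored as loss of dexamethasone-driven (5 nM final) reporter signal in HeLa cells bearing a glucocorticoid response element–beta-lactamase construct, after 18 h compound exposure at 37 C and 2 h FRET substrate loading.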

[10] = qHTS assay to identify small molecule antagonists of the androgen receptor (AR) signaling pathway - cell viability counter screen (AID 743033; note: nearly all actives have a fitted effect of over 45% in size); conditions: AR-bla HEK293 viability, CellTiter-Glo luminescence, 16 h; activity change, negative = cytotoxicity: at 58.5 µM (top of the series)
Potency is the fitted concentration of half-maximal effect; tags give direction and shape of the fitted curve or compound fluorescence and quenching.

Chain of UniProt P04150 (P04150 whole entry, looked up): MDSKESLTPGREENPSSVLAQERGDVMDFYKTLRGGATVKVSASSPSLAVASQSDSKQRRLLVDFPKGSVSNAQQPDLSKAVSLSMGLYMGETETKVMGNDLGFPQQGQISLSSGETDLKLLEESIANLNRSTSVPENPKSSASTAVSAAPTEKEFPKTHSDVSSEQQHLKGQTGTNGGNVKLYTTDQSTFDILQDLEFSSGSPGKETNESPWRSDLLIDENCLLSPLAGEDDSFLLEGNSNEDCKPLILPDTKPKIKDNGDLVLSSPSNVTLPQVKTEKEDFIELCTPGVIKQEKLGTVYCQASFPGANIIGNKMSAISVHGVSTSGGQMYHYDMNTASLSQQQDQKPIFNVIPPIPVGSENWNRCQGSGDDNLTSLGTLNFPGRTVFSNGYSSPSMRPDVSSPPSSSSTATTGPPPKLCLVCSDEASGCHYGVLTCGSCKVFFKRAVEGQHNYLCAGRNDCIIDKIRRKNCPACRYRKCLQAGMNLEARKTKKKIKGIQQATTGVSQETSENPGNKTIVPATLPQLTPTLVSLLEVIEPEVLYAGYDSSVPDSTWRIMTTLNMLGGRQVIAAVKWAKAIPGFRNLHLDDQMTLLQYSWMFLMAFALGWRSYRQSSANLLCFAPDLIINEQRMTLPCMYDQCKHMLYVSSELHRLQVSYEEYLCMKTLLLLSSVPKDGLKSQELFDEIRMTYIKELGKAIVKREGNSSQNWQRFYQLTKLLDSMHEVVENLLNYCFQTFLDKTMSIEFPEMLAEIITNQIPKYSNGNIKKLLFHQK

Row | SMILES | Potency [1] | activation [1] | Potency [2] | Potency [3] | Potency [4] | Potency [5] | Potency [6] | Potency [7] | Potency [8] | activation [8] | Potency [9] | Potency [10]
1 | Cc1ccc(N)c(N)c1 | inconclusive: 12.2 µM [fluorescent, partial curve, poor fit] | inconclusive: -7.19% | inconclusive: 54.6 µM [inhibitor, partial curve] and inconclusive: 17.2 µM | active: 54.6 µM and active: 17.2 µM | active: 30.7 µM and active: 21.7 µM | – | – | – | – | – | – | –
2 | CN(C)C(=S)SSC(=S)N(C)C | – | inconclusive: 14.5% | active: 335 nM and active: 30.2 µM and active: 54.5 nM | active: 47.3 nM and active: 240 nM and active: 24.3 nM | – | inconclusive: 18.8 µM [activator, partial curve] and inconclusive: 34.4 µM [activator, partial curve, poor fit] | inconclusive: 68.6 µM [falling, single point] | inconclusive: 60.3 µM [cytotoxic, partial curve, poor fit] | inconclusive: 6.01 µM [rising, single point] | active: -15.4% [inconclusive] and active: -4.77% [inconclusive] | inconclusive: 1.69 µM [activator, full curve, poor fit] and inconclusive: 60.8 µM [inhibitor, single point] and inconclusive: 61.6 µM [inhibitor, single point] | active: 535 nM and active: 85.9 nM and active: 34.7 nM
